# Results as given in the supplement of paper PMC8728848.
# The other results are listed elsewhere or left out.
# B1: ClecSol-Fc (Cryptosporidium parvum) (protein)
# chain: CPEGWISNGEKTRCFKLVTFDRPRTFSHGFKACNDLGGTEVETRRRNGSKETNEYPVTLASVYKLSDEEAIRRTLVEQGDIHKTANGCFVGLRKYAFFRYPPGWYWIDSGSPVSVRDSEINWTSSYNASWLLRFKFPFEKCGFFDIGGLGRRPCWLIDSELSCAVCGTVAYDSGGLNPNKYSELIKQTDEIISKEPKLDLPGYNNLNCTDAWENNLSVGLCQNVSNILDSAWSSYQSSLNFPSINFNWKEDSTNEGGDQVYHNSYLDLPRYKQKKTFYWDQDPGTIPALSDEMKLIGLSAQPTYHPLDRSSSGSFESDSTESGRANEERNDTLEEMIYKQSSDSIEDILVPVTKPIFSDYSSIGRNSGVEEVYSSNVSTISSKGVVFPNTTTSSDNDFTKNNPANSSKHTSTSTTTNTTTTTTRTTTTTTTTTTTTTTTTTTTTETTTTKKSTTATKNTTTT
# Key:
# Assay in all cases: glycan array binding signal (z-score within array); higher = stronger binding
# Details in all cases: glycan notation: IUPAC condensed, linker removed
# GalNAc(b1-3)Gal = target: GalNAc(b1-3)Gal
# Outline: (§1)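 Negative Z-scores can be read as non-binding. The Z-score is calculated within each array and then averaged across arrays of one protein sequence at different concentrations or buffers and across linkers. Arrays, 3228 in all, were curated from the Consortium for Functional Glycomics database and kept only where the protein sequence was available.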
# [1] = target: GalNAc(b1-3)Gal(a1-4)Gal(b1-4)GlcNAc
# Outline: as §1
# [2] = target: GalNAc(b1-3)Gal(a1-4)Gal(b1-4)GlcNAc(b1-3)Gal(b1-4)Glc
# Outline: as §1
# [3] = target: GalNAc(b1-3)Gal(a1-6)Gal(b1-4)Glc
# Outline: as §1
# GalNAc(b1-3)GalNAc = target: GalNAc(b1-3)GalNAc
# Outline: as §1
# GalNAc(b1-3)GlcNAc = target: GalNAc(b1-3)GlcNAc
# Outline: as §1
# GalNAc(b1-4)Gal(b1-4)Glc = target: GalNAc(b1-4)Gal(b1-4)Glc
# Outline: as §1
# GalNAc(b1-4)GlcNAc = target: GalNAc(b1-4)GlcNAc
# Outline: as §1
# [4] = target: GalNAc(b1-4)GlcNAc(b1-2)Man
# Outline: as §1
# [5] = target: GalNAc(b1-4)GlcNAc(b1-2)Man(a1-3)[GalNAc(b1-4)GlcNAc(b1-2)Man(a1-6)]Man(b1-4)GlcNAc(b1-4)GlcNAc
# Outline: as §1
# [6] = target: GalNAc(b1-4)GlcNAc(b1-3)GalNAc(b1-4)GlcNAc
# Outline: as §1
# GalNAc(b1-4)GlcNAc6S = target: GalNAc(b1-4)GlcNAc6S
# Outline: as §1
# GalNAc(b1-6)GalNAc = target: GalNAc(b1-6)GalNAc
# Outline: as §1
# GalNAc3S(b1-4)GlcNAc = target: GalNAc3S(b1-4)GlcNAc
# Outline: as §1
# GalNAc3S(b1-4)GlcNAc3S = target: GalNAc3S(b1-4)GlcNAc3S
# Outline: as §1
# [7] = target: GalNAc3S(b1-4)[Fuc(a1-3)]GlcNAc
# Outline: as §1
# GalNAc4S6S(b1-4)GlcNAc = target: GalNAc4S6S(b1-4)GlcNAc
# Outline: as §1
# GalNAc6S(b1-4)GlcNAc = target: GalNAc6S(b1-4)GlcNAc
# Outline: as §1
# Glc(a1-4)Glc = target: Glc(a1-4)Glc
# Outline: as §1
# [8] = target: Glc(a1-4)Glc(a1-4)Glc(a1-4)Glc
# Outline: as §1
# Glc(a1-6)Glc(a1-6)Glc = target: Glc(a1-6)Glc(a1-6)Glc
# Outline: as §1
# [9] = target: Glc(a1-6)Glc(a1-6)Glc(a1-6)Glc
# Outline: as §1
# Glc(b1-4)Glc = target: Glc(b1-4)Glc
# Outline: as §1
# Glc(b1-6)Glc = target: Glc(b1-6)Glc
# Outline: as §1
# GlcA(b1-3)Gal = target: GlcA(b1-3)Gal
# Outline: as §1
# GlcA(b1-3)GlcNAc = target: GlcA(b1-3)GlcNAc
# Outline: as §1
# GlcA(b1-6)Gal = target: GlcA(b1-6)Gal
# Outline: as §1
# [10] = target: GlcA3S(b1-3)Gal(b1-4)GlcNAc(b1-2)Man
# Outline: as §1
# [11] = target: GlcA3S(b1-3)Gal(b1-4)GlcNAc(b1-3)Gal(b1-4)Glc
# Outline: as §1
# [12] = target: GlcNAc(a1-3)Gal(b1-4)GlcNAc
# Outline: as §1
# [13] = target: GlcNAc(a1-4)Gal(b1-3)GlcNAc
# Outline: as §1
# [14] = target: GlcNAc(a1-4)Gal(b1-4)GalNAc
# Outline: as §1
# [15] = target: GlcNAc(a1-4)Gal(b1-4)GlcNAc
# Outline: as §1
# [16] = target: GlcNAc(a1-4)Gal(b1-4)GlcNAc(b1-3)Gal(b1-4)Glc
# Outline: as §1
# [17] = target: GlcNAc(a1-4)Gal(b1-4)GlcNAc(b1-3)Gal(b1-4)GlcNAc
# Outline: as §1
# [18] = target: GlcNAc(a1-4)Gal(b1-4)GlcNAc(b1-3)Gal(b1-4)GlcNAc(b1-3)Gal(b1-4)GlcNAc
# Outline: as §1
# [19] = target: GlcNAc(a1-4)Gal(b1-4)GlcNAc(b1-3)Gal(b1-4)[Fuc(a1-3)]GlcNAc(b1-3)Gal(b1-4)[Fuc(a1-3)]GlcNAc
# Outline: as §1
# [20] = target: GlcNAc(a1-6)Gal(b1-4)GlcNAc
# Outline: as §1
binder,measurement,setting,value
B1,glycan array binding signal (z-score),GalNAc(b1-3)Gal,-0.076
same,glycan array binding signal (z-score),[1],0.314
same,glycan array binding signal (z-score),[2],-0.19
same,glycan array binding signal (z-score),[3],-0.242
same,glycan array binding signal (z-score),GalNAc(b1-3)GalNAc,-0.202
same,glycan array binding signal (z-score),GalNAc(b1-3)GlcNAc,-0.236
same,glycan array binding signal (z-score),GalNAc(b1-4)Gal(b1-4)Glc,-0.098
same,glycan array binding signal (z-score),GalNAc(b1-4)GlcNAc,-0.174
same,glycan array binding signal (z-score),[4],-0.171
same,glycan array binding signal (z-score),[5],-0.238
same,glycan array binding signal (z-score),[6],-0.133
same,glycan array binding signal (z-score),GalNAc(b1-4)GlcNAc6S,-0.226
same,glycan array binding signal (z-score),GalNAc(b1-6)GalNAc,-0.238
same,glycan array binding signal (z-score),GalNAc3S(b1-4)GlcNAc,-0.13
same,glycan array binding signal (z-score),GalNAc3S(b1-4)GlcNAc3S,0.029
same,glycan array binding signal (z-score),[7],0.219
same,glycan array binding signal (z-score),GalNAc4S6S(b1-4)GlcNAc,-0.01
same,glycan array binding signal (z-score),GalNAc6S(b1-4)GlcNAc,-0.236
same,glycan array binding signal (z-score),Glc(a1-4)Glc,0.234
same,glycan array binding signal (z-score),[8],-0.148
same,glycan array binding signal (z-score),Glc(a1-6)Glc(a1-6)Glc,-0.142
same,glycan array binding signal (z-score),[9],-0.083
same,glycan array binding signal (z-score),Glc(b1-4)Glc,-0.265
same,glycan array binding signal (z-score),Glc(b1-6)Glc,-0.126
same,glycan array binding signal (z-score),GlcA(b1-3)Gal,-0.082
same,glycan array binding signal (z-score),GlcA(b1-3)GlcNAc,-0.094
same,glycan array binding signal (z-score),GlcA(b1-6)Gal,-0.059
same,glycan array binding signal (z-score),[10],0.302
same,glycan array binding signal (z-score),[11],0.237
same,glycan array binding signal (z-score),[12],-0.058
same,glycan array binding signal (z-score),[13],0.049
same,glycan array binding signal (z-score),[14],18.7
same,glycan array binding signal (z-score),[15],0.338
same,glycan array binding signal (z-score),[16],0.038
same,glycan array binding signal (z-score),[17],2.11
same,glycan array binding signal (z-score),[18],1.61
same,glycan array binding signal (z-score),[19],0.617
same,glycan array binding signal (z-score),[20],0.052
